We go through two molecules from publication PMC3630055, “Bovine HEXIM1 inhibits bovine immunodeficiency virus replication through regulating BTat-mediated transactivation” (Veterinary Research, 2013).

Protein sequences, listed by entry. Tags and fused reporters are not part of them. Residues count along the entry.
UniProt Q6T8E9, residues 1-272: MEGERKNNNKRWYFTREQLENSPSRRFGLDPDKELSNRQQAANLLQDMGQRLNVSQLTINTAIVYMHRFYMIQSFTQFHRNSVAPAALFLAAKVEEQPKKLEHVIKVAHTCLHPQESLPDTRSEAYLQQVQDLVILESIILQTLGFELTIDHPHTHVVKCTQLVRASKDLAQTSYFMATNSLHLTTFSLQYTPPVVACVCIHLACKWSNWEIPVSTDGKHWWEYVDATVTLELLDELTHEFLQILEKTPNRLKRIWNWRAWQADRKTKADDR

Results are given in words; binding and its absence hold for the method and conditions named. In cells and extracts the contact can be indirect. Some results given as binding are weak or reduced against the parent protein; the word gives no strength. Tags and fused reporters may be left off the sequences shown.

What all share (test): co-IP; 293 T cells co-transfected with HA-BHEXIM1 (or truncations) and Flag-B-cyclin T1; lysis in 50 mM Tris-HCl pH 8.0, 150 mM NaCl, 1% NP-40; immunoprecipitation with anti-HA (or, reciprocally, anti-Flag) at 4°C, immunoblot for the other tag
A general note: In western blotting, separated proteins are transferred to a membrane and probed.

Assay [1] addresses T1, HA-BHEXIM1 (bovine hexamethylene bisacetamide (HMBA)-induced protein 1), 1-320 aa (full-length) (bovine) (UniProt Q0X0C4).
T1 sequence: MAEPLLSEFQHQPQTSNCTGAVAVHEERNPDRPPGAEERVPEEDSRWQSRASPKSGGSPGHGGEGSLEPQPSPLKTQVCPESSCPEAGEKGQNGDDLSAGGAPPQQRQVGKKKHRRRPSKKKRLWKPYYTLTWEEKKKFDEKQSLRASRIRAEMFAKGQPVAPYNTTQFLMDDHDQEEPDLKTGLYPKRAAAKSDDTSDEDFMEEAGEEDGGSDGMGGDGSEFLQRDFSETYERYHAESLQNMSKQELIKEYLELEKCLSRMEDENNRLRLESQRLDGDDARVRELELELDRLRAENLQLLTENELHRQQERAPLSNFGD

For assay [2], the target named is T2, HA-BHEXIM1 1-140 (bovine) (UniProt Q0X0C4).
T2 sequence: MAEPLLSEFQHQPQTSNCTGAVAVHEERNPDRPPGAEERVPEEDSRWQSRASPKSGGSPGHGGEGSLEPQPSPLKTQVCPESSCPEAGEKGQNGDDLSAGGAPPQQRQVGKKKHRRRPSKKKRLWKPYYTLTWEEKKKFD

The target of assay [3] is T3, HA-BHEXIM1 104-320 (bovine) (UniProt Q0X0C4).
T3 sequence: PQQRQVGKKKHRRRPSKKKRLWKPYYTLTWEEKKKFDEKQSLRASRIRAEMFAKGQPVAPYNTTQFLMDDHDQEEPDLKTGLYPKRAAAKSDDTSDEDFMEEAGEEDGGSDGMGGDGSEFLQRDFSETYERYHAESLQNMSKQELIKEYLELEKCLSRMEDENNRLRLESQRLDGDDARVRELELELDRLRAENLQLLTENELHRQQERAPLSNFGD

Assay [4] has as its target T4, HA-BHEXIM1 Δ(108-140) (bovine) (UniProt Q0X0C4).
T4 sequence: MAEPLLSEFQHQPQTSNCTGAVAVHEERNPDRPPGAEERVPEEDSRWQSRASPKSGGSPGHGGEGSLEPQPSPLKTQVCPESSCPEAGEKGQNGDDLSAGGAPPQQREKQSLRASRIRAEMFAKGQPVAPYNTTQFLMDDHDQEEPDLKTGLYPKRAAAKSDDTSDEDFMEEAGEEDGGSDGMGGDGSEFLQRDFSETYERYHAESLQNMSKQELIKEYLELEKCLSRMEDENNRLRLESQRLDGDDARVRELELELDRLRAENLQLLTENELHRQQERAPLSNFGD

Assay [5] deals with Flag-B-cyclin T1 (aa residues 1-272 of bovine cyclin T1) (bovine) (UniProt Q6T8E9).

For the molecule “Flag-B-cyclin T1 (aa residues 1-272 of bovine cyclin T1) (from UniProt Q6T8E9 1-272) (domain or fragment)”, the binding entry in assay [1] is given as “binds”; in assay [2], “no binding”; in assay [3], “binds”; in assay [4] it was “no binding”.

B1: HA-BHEXIM1 (bovine hexamethylene bisacetamide (HMBA)-induced protein 1), 1-320 aa (full-length) (protein, UniProt Q0X0C4 1-320)
chain: T1 sequence
Take B1: in assay [5], the binding result is given as “binds”.
